Whole data set: some 81,000 sequences, median “one-hybrid fitness for binding NBS DNA” near -0.1, cut for the highest 2% near 0.36. The list shows a part of the results.
B1: Caulobacter ParB omega fusion; a variant is named by its letters at X, in order, B8GW30 (parent)
chain: MESVVVGEPGMSEGRRGLGRGLSALLGEVDAAPAQAPGEQLGGSREAPIEILQRNPDQPRRTFREEDLEDLSNSIREKGVLQPILVRPSPDTAGEYQIVAGERAWRAAQRAGLKTVPIMVRELDDLAVLEIGIIENVQRADLNVLEEALSYKVLMEKFERTQENIAQTIGKSXSHVANXMRLLXLPDEVQSYLVSGELTAXHARAIAAAADPVALAKQIIEGGLSVRETEALARKAPNLSAGKSKGGRPPRVKDTDTQALESDLSSVLGLDVSIDHRGSTGTLTITYATLEQLDDLCNRLTRGI

Variants of: B1
Experiment: one-hybrid fitness for binding NBS DNA (the Noc-binding site; scaled: cognate 1, non-cognate 0); higher = stronger binding
Details: with NBS DNA site
Summary of the method: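 Caulobacter ParB libraries with four specificity codons randomised were screened by bacterial one-hybrid selection in the E. coli USO strain, using a HIS3 reporter whose site lies 19 bp from the promoter. Selection ran for 48 hours at 37°C on M9 lacking histidine, with 0.1 mM IPTG and 5 mM 3-AT. Plasmids were Illumina-sequenced before and after selection, three replicate libraries were pooled, and variants with under 10 reads were dropped. Fitness is the log change in each variant's read ratio to wild type, rescaled against the cognate and non-cognate sites.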

Variant	one-hybrid fitness for binding NBS DNA
SPVK	≤ 0.2
RSTP	≤ 0.2
QTVM	≤ 0.2
YCIR	≤ 0.2
NAES	≤ 0.2
QDRT	≤ 0.2
AMAY	≤ 0.2
AKAE	≤ 0.2
ACAN	≤ 0.2
INVL	≤ 0.2
PRFS	≤ 0.2
KLYH	≤ 0.2
DESA	≤ 0.2
KKAT	0.309
KDMR	≤ 0.2
PVHF	≤ 0.2
TNEM	≤ 0.2
AQRC	≤ 0.2
CCDC	≤ 0.2
ICLM	≤ 0.2
MCCT	≤ 0.2
GTQL	≤ 0.2
YTPK	≤ 0.2
RDLK	≤ 0.2
IRHG	≤ 0.2
GRCE	≤ 0.2

Variant	one-hybrid fitness for binding NBS DNA
LRRQ	≤ 0.2
LWCR	≤ 0.2
MSYS	≤ 0.2
STVF	≤ 0.2
AWRP	≤ 0.2
QDWT	≤ 0.2
LKQS	≤ 0.2
DRGS	≤ 0.2
DLNG	≤ 0.2
RYFL	≤ 0.2
VCMG	≤ 0.2
SQVS	≤ 0.2
SRRG	≤ 0.2
IMTR	≤ 0.2
RCQT	0.513
FFTG	≤ 0.2
PKQS	≤ 0.2
MNSA	≤ 0.2
SIYC	≤ 0.2
GIME	≤ 0.2
SQRG	≤ 0.2
GSTY	≤ 0.2
RCCF	≤ 0.2
QADT	0.287
LYLS	≤ 0.2
DCQG	≤ 0.2

Variant	one-hybrid fitness for binding NBS DNA
MRKM	≤ 0.2
DLYR	≤ 0.2
AQAH	≤ 0.2
IAKI	≤ 0.2
ERLG	≤ 0.2
VICA	≤ 0.2
ETWT	≤ 0.2
SSAN	≤ 0.2
RHCK	≤ 0.2
HKKY	≤ 0.2
QKAM	≤ 0.2
HGRI	≤ 0.2
AVLM	≤ 0.2
VKYG	≤ 0.2
DPLG	≤ 0.2
TRSA	≤ 0.2
MQQR	≤ 0.2
NRNL	≤ 0.2
MRYR	≤ 0.2
YSSV	≤ 0.2
KCAR	≤ 0.2
QMRP	0.291
LVMD	≤ 0.2
SGNC	≤ 0.2
KHPL	≤ 0.2
RCCN	≤ 0.2

Variant	one-hybrid fitness for binding NBS DNA
DCPR	≤ 0.2
INLR	≤ 0.2
CINS	≤ 0.2
VVMY	≤ 0.2
INDG	≤ 0.2
YAWT	≤ 0.2
LPHR	≤ 0.2
PNAS	≤ 0.2
QCLM	≤ 0.2
CLPC	≤ 0.2
EAEA	≤ 0.2
YLLG	≤ 0.2
RNRQ	≤ 0.2
RDAC	≤ 0.2
RKVI	≤ 0.2
QLNP	≤ 0.2
ELQA	≤ 0.2
NAQT	≤ 0.2
PCNI	≤ 0.2
YGIL	≤ 0.2
TRQD	≤ 0.2
PMNA	≤ 0.2
MNQT	≤ 0.2
IEHG	≤ 0.2
RARD	≤ 0.2
QSDS	≤ 0.2

Variant	one-hybrid fitness for binding NBS DNA
KFKR	0.21
ELLM	≤ 0.2
KDYA	≤ 0.2
ENQP	≤ 0.2
AAYQ	≤ 0.2
QSKP	0.229
PAVW	≤ 0.2
CVPN	≤ 0.2
SKMT	≤ 0.2
EDPM	≤ 0.2
CRNR	0.259
PQIS	≤ 0.2
FNDG	≤ 0.2
LMDC	≤ 0.2
AETD	≤ 0.2
PKIS	≤ 0.2
DNIV	≤ 0.2
YKSL	≤ 0.2
RVGV	≤ 0.2
WITG	≤ 0.2
PCSY	≤ 0.2
LTPE	≤ 0.2
YNYG	≤ 0.2
YTCT	≤ 0.2
GFKT	≤ 0.2
VVVV	≤ 0.2

Variant	one-hybrid fitness for binding NBS DNA
HVIT	≤ 0.2
FTVT	≤ 0.2
ACHG	≤ 0.2
TAYN	≤ 0.2
WRYT	≤ 0.2
HVPM	≤ 0.2
QMPL	≤ 0.2
WAGT	≤ 0.2
QIDT	≤ 0.2
NNMS	≤ 0.2
RTEL	≤ 0.2
RYFQ	≤ 0.2
LNTV	≤ 0.2
GHYN	≤ 0.2
IPAR	≤ 0.2
KQNT	≤ 0.2
HGDG	≤ 0.2
ESRQ	≤ 0.2
IFHR	≤ 0.2
DNPG	≤ 0.2
PNEG	≤ 0.2
YRNY	≤ 0.2
TATL	≤ 0.2

From a collection of fitness landscapes (doi:10.1016/j.celrep.2020.107928)
